Over roughly 33,000 sequences, “E-score (-0.5 to 0.5)” has its median near -0.054; the highest 2% begin near 0.39. The list shows a part of the results.
target: Ylr278c (UniProt Q05854); assay: PBM E-score (8-mer binding enrichment) (E-score (-0.5 to 0.5)); higher = stronger / more preferred TF binding; most listed sequences are background and not binding sites; conditions: protein concentration: 200 nM; construct: GST-DNA-binding domain
Protocol: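 Universal 'all 10-mer' protein binding microarrays (Agilent AMADID 015681) probed with GST-tagged S. cerevisiae TFs (full-length or DBD) made by in vitro transcription/translation (PURExpress), about 100-200 nM. Bound TF was detected with fluorescent anti-GST. Each ungapped 8-mer (which stands for itself and its reverse complement) is scored by the PBM enrichment score (E-score), a modified Wilcoxon-Mann-Whitney statistic from -0.5 to +0.5, computed with the Universal PBM Analysis Suite. Scale: above 0.35 generally sequence-specific binding.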

Sequence | PBM E-score
ATTTACCC | 0.00209
CAGGGTCC | -0.0196
CAGATTAC | -0.0164
ACGATGTA | -0.201
CGATGATA | 0.0943
CGAGCGTA | -0.0554
CATAGCTC | -0.0775
ACAGTGGA | -0.077
CTTAATAC | -0.135
ACCTCTCC | -0.00805
AAAGATCG | -0.121
CGTCTCAG | -0.155
GAAGGGAA | -0.124
AACTCGAG | -0.121
GAATTTGA | 0.116
TAAGACTA | -0.2
GAGAATCC | 0.147
CAGGGAAG | -0.123
CGGAGAAC | 0.445
TACGCTCA | -0.223
GCGTCCAA | -0.175
GTGATAAA | -0.122
TGGCGAAA | -0.00886
TAGCACAA | -0.115
CTTCAATA | -0.0693

Sequence | PBM E-score
AACAGTGA | -0.066
GTACAGTA | -0.0759
AGTCACAG | -0.326
CCCCCGCA | 0.0425
CAGAAAGG | -0.125
TTACGCAA | -0.0173
CTGTGTTC | -0.0708
AACGCATA | -0.003
CAATACCC | 0.176
TCCGAAGA | 0.433
CGATGGCA | 0.0143
CGCAATAG | -0.0881
ACCGACGG | 0.323
ATCCGCAT | 0.263
CTAGAACC | -0.119
GGGCCGAA | 0.198
AAACTTGT | -0.129
CGATCTCA | -0.00974
CCCCGAGG | 0.245
CGGTTAGA | 0.00791
AACGCCCG | 0.279
CATGAAGC | 0.116
ACGTTCTG | -0.141
ACATTGCA | -0.0533
TATGTTGA | -0.0826

Sequence | PBM E-score
CCAGGACA | -0.0615
GACGTCCA | 0.0178
GATGGTCC | 0.103
ACGCAATA | -0.0667
GCTCGAAC | -0.194
AGTCAAGG | -0.251
ACACTTAC | -0.112
GGCTCCAC | -0.151
GCGAGGAA | 0.198
AACAGAGG | -0.192
ACTCACAC | -0.0834
GTCCAAAC | -0.168
GTACCATA | -0.222
AGAGGTTG | -0.0914
AAATAGAC | 0.00956
CGTACGTC | -0.182
ATAAAGCG | 0.0368
AGTTCGCG | 0.133
AAGCAACA | -0.135
CAGGGTGC | -0.0626
CCGTCCGC | 0.326
GATGAGAA | -0.264
CTTCTACA | -0.212
CGCCAACA | 0.00656
CTTGTAAA | -0.0236

Sequence | PBM E-score
GCAGGGAA | 0.0339
AAAACCGT | -0.113
AGCTTCCT | -0.143
AATCGGAA | 0.416
GGGGAGGA | 0.0353
AGTAATGG | -0.146
ATGGTTGG | 0.00201
AGGACCCG | 0.158
ATTTCGTG | -0.131
GAACCTTA | 0.147
CTAACAGC | 0.0442
ATAGCCGA | 0.181
TCGTCCCA | -0.165
AACGCAGT | -0.0888
ATTTGTAA | -0.112
CAGCCCTA | -0.00615
AATATATA | 0.0198
GGGTTCAC | 0.0617
ATGCTGTA | -0.185
GAGTATCC | 0.123
CATAGACC | -0.0979
GGGATCTA | 0.0224
ATGATCAG | -0.218
GAGTATCA | 0.0352
TCGCATCA | 0.145

Sequence | PBM E-score
CAGTAGTA | -0.231
ATGTGAAA | -0.178
ACCACCAA | -0.0184
AAGTGCTC | -0.223
CTCAGTGA | -0.34
GCTGTAGA | -0.161
ACAATTCT | -0.27
CGCGTTGA | -0.089
CCGAAGAC | 0.259
CTCTAGCC | -0.102
ATCCAGGC | -0.16
GGAAGCCC | 0.216
CTCGCCGC | 0.13
CGTAGAGA | -0.28
AACCCGAG | 0.264
CGATATAC | 0.156
GGTCCCTA | -0.146
ACCGGAGA | 0.475
GCCCTCAA | -0.106
CTGTCGTA | -0.124
GTAATGAC | -0.0287
GTTTTACA | -0.0511
CTCTATTC | 0.0786
ATCCACGC | -0.225
ACGTGCTA | -0.242

Sequence | PBM E-score
CACTGCGA | -0.0532
CTTCTCAA | -0.149
AGGAGACA | -0.0751
CTGGGTTC | -0.0115
GTAAGAGA | -0.19
ACCTTTAT | -0.214
GCGTACCC | -0.0941
CAATTCGC | 0.131
GCATCGGC | 0.308
GGCGGAGA | 0.444
GTCTAAGA | -0.118
GTAGGTTA | -0.123
GGCCCCGA | 0.234
GAACCAGA | -0.267
AGATAGAG | -0.145
CAAGTTCC | 0.221
ACGCATCA | -0.0248
CAGTTGAA | -0.229
ACTGTAAC | -0.204
AAGTAGCG | -0.155
CGGTCAAG | 0.189
AGTTTTAC | 0.00603
CTTGACCA | -0.396
CGCGTTGC | 0.122
ATGGCACC | 0.014

Sequence | PBM E-score
CGGGTGCC | 0.154
TGTTTGAA | -0.199
AGAATTCG | -0.0246
GGGGGTCA | -0.159
ACGTGGTG | -0.073
CGGCTAAA | 0.236
GACGCGTC | -0.292
AAAAAGAT | -0.0389
AGGAAGTA | 0.126
CTCCCCGC | 0.288
AACATGCG | -0.129
CCTAACGA | -0.0685
GTTCCGTA | 0.264
ACTAGAAG | -0.121
AGGATGCG | -0.177
AAACACTA | -0.182
GTATACCA | -0.227
AAAAGGGA | -0.277
AGGCGCCC | -0.132
CGACAGTA | 0.103
AACACACC | 0.0611
ATATTGCC | 0.0162

From the supplement of paper PMC3334620
